Holding throughout (assay): Primary Screen for Target Class Profiling of Small Molecule Inhibitors of Methyltransferases
The target in assay [1] is Glycine N-methyltransferase (Homo sapiens) (UniProt Q14749). The following applies: purified enzyme, MTase-Glo SAH luminescence; measured here: GNMT inhibition; at 40 µM; stronger effect = lower value. The method in brief: (§1)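 Each enzyme was reacted with SAM and its substrate, with compounds tested once at 40 uM; SAH formed was read by MTase-Glo luminescence.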
The target in assay [2] is Guanidinoacetate N-methyltransferase (Homo sapiens) (UniProt Q14353). The following applies: purified enzyme, MTase-Glo SAH luminescence; measured here: GAMT inhibition; at 40 µM; stronger effect = lower value. In a few lines:
as §1

In assay [3] the target is Histamine N-methyltransferase (Homo sapiens) (UniProt P50135). The settings on record: purified enzyme, MTase-Glo SAH luminescence; measured here: HNMT inhibition; at 40 µM; stronger effect = lower value. In a few lines:
as §1

The target of assay [4] is Nicotinamide N-methyltransferase (Homo sapiens) (UniProt P40261). The settings on record: purified enzyme, MTase-Glo SAH luminescence; measured here: NNMT inhibition; at 40 µM; stronger effect = lower value. In a few lines:
as §1

Assay [5] has as its target Phenylethanolamine N-methyltransferase (Homo sapiens) (UniProt P11086). The settings on record: purified enzyme, MTase-Glo SAH luminescence; measured here: PNMT inhibition; at 40 µM; stronger effect = lower value. The method in brief: as §1

Values joined by “and” are separate entries in the source; they are usually repeats but may differ in a detail not shown here. Identical values can stand only once. The list shows a part of the results. Further columns of the screen follow, without active or inactive calls.
% is scaled to controls: 0 for no effect and ±100 for the full control effect.

As for `Cc1ccc(-c2nc(NCc3ccncc3)ncc2C(=O)O)cc1`, the activity change, negative = inhibition is -5.45% in assay [1]; -4.71% in assay [2]; -0.38% in assay [3]; -4.4% in assay [4]; -1.36% in assay [5].

On to `O=C(O)/C(=C/c1c(C(=O)O)[nH]c2cc(Cl)cc(Cl)c12)c1ccccc1`, for which the activity change, negative = inhibition was -10.9% in assay [1]; 11.8% in assay [2]; 13.7% in assay [3]; -8.09% in assay [4]; -0.691% in assay [5].

In the case of `COc1ccccc1NC(=O)Nc1ccc2ccccc2c1`, the activity change, negative = inhibition is -9.65% in assay [1]; -18.1% in assay [2]; 4.66% in assay [3]; -30.4% in assay [4]; -4.71% in assay [5].

Consider `CCOC(=O)C1CCCN(S(=O)(=O)c2ccc3[nH]c(=O)[nH]c3c2)C1` (stereo unspecified), for which the activity change, negative = inhibition in assay [1] was -0.009%; in assay [2], 0%; in assay [3] it was -1.76%; in assay [4], -10.2%; in assay [5], -42.9%.

Take `N#Cc1ccc(OCC2CN(Cc3cccc(C(F)(F)F)c3)C(=O)c3c(ccnc3-c3ccc(OCC(=O)O)cc3)O2)cc1` (stereo unspecified): the activity change, negative = inhibition in assay [1] was -11.1%; in assay [2] it was -2.51%; in assay [3], -1.15%; in assay [4] it was -6.54%; in assay [5] it was 4.64%.

Take `CN(CCCNC(=O)CCc1nnc2n(Cc3ccccc3)c(=O)c3ccccc3n12)Cc1ccccc1`: the activity change, negative = inhibition was -14.3% in assay [1]; 4.24% in assay [2]; -41.5% in assay [3]; -9.41% in assay [4]; -4.21% in assay [5].

`Fc1ccc(N2CCN(c3nc4ccccc4c4nc(-c5cccnc5)nn34)CC2)cc1`: the activity change, negative = inhibition is -4.78% in assay [2], -7.7% in assay [4] and 4.46% in assay [5].

On to `CCCCC1CCN(CCCC(=O)c2ccccc2C)CC1`, for which the activity change, negative = inhibition is -3.94% in assay [1]; 11.9% in assay [2]; -13.1% in assay [3]; -9.99% in assay [4]; -11.4% in assay [5].

For `Cc1ccc2cc(CN3CCN(CC(N)=O)CC3)c(-c3cccs3)nc2c1`, the activity change, negative = inhibition in assay [1] was -2.61%; in assay [2], -0.852%; in assay [3], -2.02%; in assay [4], -1.79%; in assay [5], -15.6%.

On to `Cc1nn(C)cc1C(=O)NCCn1c(C)cnc1C1CC1`, for which the activity change, negative = inhibition in assay [1] was -0.311%; in assay [2], -0.382%; in assay [3], -12.2%; in assay [4], -0.906%; in assay [5] it was 1.23%.

Regarding `COc1ccccc1C(=O)N(Cc1ccco1)S(=O)(=O)c1ccc2c(c1)n(C)c(=O)n2C`, the activity change, negative = inhibition in assay [1] was 4.88%; in assay [2], 1.21%; in assay [3], 1.42%; in assay [4], 9.95%; in assay [5], 1.92%.

In the case of `CCN(CC)C(=O)[C@@H](C)C1CC[C@@]2(C)CC[C@H](NC(=O)c3ccncc3)[C@@H](C)[C@@H]2[C@H]1O` (stereo partly specified), the activity change, negative = inhibition in assay [1] is -2.64%; in assay [2] it was -4.69%; in assay [3], -2.22%; in assay [4], -3.35%; in assay [5], -3.48%.

In the case of `CC(=O)Nc1c2n(c3ccc(F)cc13)CC(C)(C(=O)NCCC(C)C)N(Cc1ccco1)C2=O` (stereo unspecified), the activity change, negative = inhibition in assay [1] is 1.71%; in assay [2] it was 0%; in assay [3] it was 3.61%; in assay [4], 9.59%; in assay [5], -7.75%.

With `COc1ccc(C(=O)N2CCC[C@H]2c2nc(-c3ccccc3)no2)cc1`, the activity change, negative = inhibition is -3.89% in assay [1]; -3.48% in assay [2]; -1.06% in assay [3]; -17.9% in assay [4]; -3.84% in assay [5].

`Cc1cc2nn(CC(=O)Nc3cccc(Cl)c3)c(=O)n2c(Nc2ccccc2C)n1`: the activity change, negative = inhibition in assay [1] came out at 13.5%; in assay [2], 0%; in assay [3], 1.74%; in assay [4] it was 3.79%; in assay [5], 4.38%.

On to `O=C(NCC1CCOCC1)c1ccoc1`, for which the activity change, negative = inhibition in assay [1] was -5.16%; in assay [2], -0.648%; in assay [3], -2.98%; in assay [4], -7.45%; in assay [5], -6.86%.

As to `Cn1nccc1C(=O)N1CCCCCNC(=O)[C@@H]2CCC[C@@H]21`, the activity change, negative = inhibition in assay [1] was 0.731%; in assay [2], 0.553%; in assay [3], 1.62%; in assay [4], -5.75%; in assay [5], 13.8%.

As to `Nc1nonc1-c1nc2cnccc2n1C1CC1`, the activity change, negative = inhibition in assay [2] was 0.358%; in assay [4], -42.1%; in assay [5], -10.5%.

On to `CC(C)C(=O)N(Cc1ccco1)S(=O)(=O)c1ccc2c(c1)n(C)c(=O)n2C`, for which the activity change, negative = inhibition in assay [1] was 1%; in assay [2], 0%; in assay [3], 6.01%; in assay [4], 3.2%; in assay [5] it was 1.35%.

As for `Cc1ccc(Cn2c(=O)c3ccc(C(=O)NC(C)C)cc3n3c(=O)n(Cc4ccc(Cl)cc4)nc23)cc1`, the activity change, negative = inhibition in assay [1] amounted to 7.98%; in assay [2], 2.43%; in assay [3], 10.6%; in assay [4], 9.31%; in assay [5], 7.37%.

As for `Oc1ccc2ccccc2c1SSc1c(O)ccc2ccccc12`, the activity change, negative = inhibition in assay [1] was -54.3%; in assay [2], -2.18%; in assay [3], -5.91%; in assay [4], -9.21%; in assay [5], -1.82%.

Regarding `Clc1ccc(Cn2c(CN3CCCC3)nc3ccccc32)cc1`, the activity change, negative = inhibition was -9.07% and -3.68% in assay [1]; -14.5% and 8.47% in assay [2]; 1.51% and -4.75% in assay [3]; -28.8% and -20.9% in assay [4]; -3.81% and 4.37% in assay [5].

`O=C(CCc1nnc2n(Cc3ccccc3Cl)c(=O)c3ccccc3n12)N1CCN(c2ccccn2)CC1`: the activity change, negative = inhibition in assay [1] was -13.7%; in assay [2], 5.1%; in assay [3] it was 5.14%; in assay [4] it was 8.69%; in assay [5] it was -8.43%.

For `COc1cc2nc(N(C)CCCNC(=O)C3CCCO3)nc(N)c2cc1OC` (stereo unspecified), the activity change, negative = inhibition in assay [1] was -9.79%; in assay [2], -0.266%; in assay [3], -4.02%; in assay [4], -9.63%; in assay [5] it was 1.23%.

On to `COc1ccc(-c2ccccc2C(=O)NCC#N)nn1`, for which the activity change, negative = inhibition in assay [1] was -6.34%; in assay [2], -11.9%; in assay [3], -3.26%; in assay [4] it was -8.69%; in assay [5], -13.7%.

In the case of `O=C(Nc1cc(C(F)(F)F)cc(C(F)(F)F)c1)c1cnc(Cl)nc1C(F)(F)F`, the activity change, negative = inhibition in assay [1] is -11.1%; in assay [2], -27.6%; in assay [3], -0.198%; in assay [4] it was -41.1%; in assay [5], -3.52%.

Take `COc1ccc2cc3n(c2c1)CC(C)(C(=O)NC1CCCC1)N(Cc1cccnc1)C3=O` (stereo unspecified): the activity change, negative = inhibition is -1.39% in assay [1]; 0.619% in assay [2]; 3% in assay [3]; -2.4% in assay [4]; -3.83% in assay [5].

As for `O=C(Nc1ccc(F)cc1F)N1Cc2c(sc3c2CCCC3)-n2cccc2C1c1ccc(F)cc1` (stereo unspecified), the activity change, negative = inhibition in assay [1] came to 1.95%; in assay [2], 0%; in assay [3], 4.11%; in assay [4], 1.86%; in assay [5] it was 3.69%.

Consider `Cn1cccc1CN1CCC2(CC1)CNc1ccccc1[S+](=O)([O-])N2`, for which the activity change, negative = inhibition in assay [1] is -7.6%; in assay [2], -8.18%; in assay [3], -24.9%; in assay [4], -6.76%; in assay [5], -6.95%.

For `Cc1cccc(NC(=O)c2cc3n(n2)CC(C)(C(=O)NCc2ccc(F)cc2)N(C)C3=O)c1C` (stereo unspecified), the activity change, negative = inhibition in assay [1] is 4.33%; in assay [2] it was 0%; in assay [3] it was 3.14%; in assay [4] it was 0.914%; in assay [5], 4.14%.

`Cc1ccccc1CCNC(=O)c1cc2n(n1)CC(C)(C(=O)NCc1ccccc1)N(C)C2=O` (stereo unspecified): the activity change, negative = inhibition was found to be 10.2% in assay [1]; 0.36% in assay [2]; 10.3% in assay [3]; 12.7% in assay [4]; 3.42% in assay [5].

Values taken from PubChem BioAssay AID1745853 (National Center for Advancing Translational Sciences (NCATS), 2022).
